In paper PMC6212790:
This is one part of the list. At the low end of the ranking, values are background and their order means little.

These sequences were tested against T1, GST-Rok-C97-191 (UniProt O34857) (assay: protein binding microarray). Conditions: Rok is a gene silencer of Bacillus subtilis; high values mean tight binding; most listed sequences are background and not binding sites; double strand, one strand shown.
T1 sequence: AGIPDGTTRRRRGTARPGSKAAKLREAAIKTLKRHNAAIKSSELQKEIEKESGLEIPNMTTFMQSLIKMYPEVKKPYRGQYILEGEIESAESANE
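Also: rank score from −0.5 (least bound) to 0.5 (best bound).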

Row | Sequence | binding signal
1 | CAGAAAAA | -0.311 E-score
2 | GTCCCAGA | -0.0942 E-score
3 | CACTGGCA | -0.312 E-score
4 | AGAGCTAC | 0.0603 E-score
5 | AGATGCAC | -0.113 E-score
6 | CCGATATC | 0.0718 E-score
7 | AAATCCTA | 0.128 E-score
8 | AATCTTAG | 0.144 E-score
9 | AGCTGGAT | 0.0164 E-score
10 | GCCACTCC | -0.161 E-score
11 | CTACATTA | 0.245 E-score
12 | ATCTACCG | 0.394 E-score
13 | CGTCCCTA | -0.187 E-score
14 | CTGCTCGC | -0.129 E-score
15 | CAGAAAGG | -0.223 E-score
16 | CTCGTAGC | 0.109 E-score
17 | CTTGAAGC | -0.226 E-score
18 | TACCGAGA | 0.0988 E-score
19 | AGCGCGAC | 0.137 E-score
20 | CTGCAGAC | 0.118 E-score
21 | AATATCCT | 0.07 E-score
22 | ACGAATGA | 0.16 E-score
23 | CTACAAAA | 0.0521 E-score
24 | CGCACGTA | -0.0986 E-score
25 | GACCCAGA | -0.142 E-score

Row | Sequence | binding signal
26 | CCCGAGGG | -0.363 E-score
27 | CTGTAAAA | 0.0478 E-score
28 | CTACGTGC | -0.0669 E-score
29 | ACCGCGGC | -0.188 E-score
30 | AGCTACAG | 0.247 E-score
31 | ATCTTTCC | -0.128 E-score
32 | GCATGTCC | 0.0487 E-score
33 | GTCAACAC | -0.142 E-score
34 | ACTAGTGG | -0.0087 E-score
35 | AGGTACCA | 0.256 E-score
36 | GTGAAGCA | -0.239 E-score
37 | CGCGGGGA | -0.321 E-score
38 | GAGCCTAA | -0.143 E-score
39 | CCAGATCC | -0.209 E-score
40 | AACGCAAC | -0.0443 E-score
41 | CTAAATTC | 0.23 E-score
42 | CCCTTTCC | -0.246 E-score
43 | AGCTGAGG | -0.237 E-score
44 | CCTTTGTC | -0.261 E-score
45 | AACCACAG | -0.102 E-score
46 | AGCAAGCC | 0.0134 E-score
47 | CCTTCGCG | -0.181 E-score
48 | ACAAGAAT | -0.0905 E-score
49 | CGAATATC | 0.0293 E-score
50 | AGGATATG | -0.0495 E-score

Row | Sequence | binding signal
51 | AAGAGACA | -0.221 E-score
52 | ACCCCCAA | -0.399 E-score
53 | CGACCTAG | 0.0268 E-score
54 | GAACTACC | 0.367 E-score
55 | ACGTGAAA | 0.0489 E-score
56 | ATGACAAC | 0.0181 E-score
57 | GTGAATTA | 0.221 E-score
58 | ACAATAAA | 0.104 E-score
59 | CGGTCCGC | -0.279 E-score
60 | CAAAGCGA | -0.152 E-score
61 | ATTTCTCC | 0.21 E-score
62 | ATGCTTGA | -0.0156 E-score
63 | CCTTATAG | -0.14 E-score
64 | AGTCCTGG | -0.174 E-score
65 | GAGGTCGA | -0.175 E-score
66 | CAGCTACG | -0.116 E-score
67 | ATCAGCGA | -0.088 E-score
68 | CATCAAAA | 0.0604 E-score
69 | CCCATACC | -0.266 E-score
70 | ATGGAGTA | 0.0769 E-score
71 | GGGGGCAC | -0.382 E-score
72 | CACCACTC | -0.262 E-score
73 | CCAACGCC | -0.246 E-score
74 | CGGAGAAA | -0.0905 E-score
75 | CCGCAAGG | -0.349 E-score

Row | Sequence | binding signal
76 | CAGAACCG | 0.00965 E-score
77 | GAGATTGC | -0.0481 E-score
78 | CTACTGGA | 0.204 E-score
79 | AATAGACC | 0.155 E-score
80 | CCACTTCA | 0.0603 E-score
81 | ACACCCTC | -0.173 E-score
82 | ACTGACTA | 0.139 E-score
83 | ACCGTCAC | 0.0542 E-score
84 | ATACACAT | 0.214 E-score
85 | AGCGCCAA | -0.207 E-score
86 | GCAGTTAC | 0.134 E-score
87 | CACCCGTG | -0.0933 E-score
88 | GACAGTCC | -0.285 E-score
89 | CTCCAGGA | -0.0714 E-score
90 | CAATAACG | -0.0985 E-score
91 | GTGACCGA | 0.048 E-score
92 | TAGAGTAA | 0.184 E-score
93 | CCTTATAA | 0.0808 E-score
94 | CAGGTCAA | -0.108 E-score
95 | CACCTTGA | -0.0916 E-score
96 | ATGCCGCA | -0.151 E-score
97 | CTCTGAAC | -0.129 E-score
98 | ATGGTCGG | -0.0958 E-score
99 | CCTCACAG | -0.0263 E-score
100 | AGATTCGA | 0.104 E-score

Row | Sequence | binding signal
101 | CGAGGCTC | -0.225 E-score
102 | GTGGTGTA | 0.129 E-score
103 | ACGCGTAT | 0.126 E-score
104 | ATCCTGAA | -0.00316 E-score
105 | ATTCTAGG | 0.145 E-score
106 | CGAATGAA | 0.058 E-score
107 | CTTTGAGA | -0.0803 E-score
108 | GGATCGAC | -0.157 E-score
109 | GGCCACGA | -0.313 E-score
110 | CACTATAA | 0.155 E-score
111 | ATTGCGAG | 0.0155 E-score
112 | GGGTTTGA | -0.123 E-score
113 | AGGGTGAA | -0.187 E-score
114 | GGGTACGA | -0.165 E-score
115 | AATACGCC | -0.0105 E-score
116 | CTTTGAGC | -0.0975 E-score
117 | ATGACATG | -0.0751 E-score
118 | CCGGCTGC | -0.24 E-score
119 | GGGCCAGA | -0.302 E-score
120 | AGCGATAA | 0.111 E-score
121 | ATACCATA | 0.267 E-score
122 | GAGTCTCA | -0.158 E-score
123 | AGTTCGAC | 0.0201 E-score
124 | AAAGTGTG | -0.107 E-score
125 | CCGACGAA | 0.0799 E-score

Row | Sequence | binding signal
126 | AGCTTGCC | -0.138 E-score
127 | GCTACTTA | 0.279 E-score
128 | ACACTTAA | 0.0866 E-score
129 | ATCTCAGA | 0.0386 E-score
130 | GACCATTA | 0.0314 E-score
131 | AACCCAAT | 0.0675 E-score
132 | ATGCGGAC | 0.000472 E-score
133 | ACTACCAC | 0.383 E-score
134 | ATGCACAC | -0.121 E-score
135 | ATATCGGA | 0.24 E-score
136 | AGCTAATG | 0.162 E-score
137 | GCACAGAC | -0.129 E-score
138 | CATCGCTC | -0.326 E-score
139 | AGCAACCC | -0.243 E-score
140 | ACCCCCCC | -0.231 E-score
141 | AGTTCCAT | 0.168 E-score
142 | ATTAATTC | 0.147 E-score
143 | GGTCCGGA | -0.091 E-score
144 | TCGGCAAA | -0.209 E-score
145 | CGCATGAC | -0.0389 E-score
146 | CTTTCGGC | -0.163 E-score
147 | AGGCACTC | -0.294 E-score
148 | ATTTTACG | 0.268 E-score
149 | CCACGGTC | -0.172 E-score
150 | GCGGACGC | -0.255 E-score

Row | Sequence | binding signal
151 | ATGTCCAG | -0.00222 E-score
152 | AGTACGCG | -0.0757 E-score
153 | CCCCGTAC | -0.147 E-score
154 | AAGGTATA | 0.181 E-score
155 | CAGATCAG | -0.267 E-score
156 | CACCTTGG | -0.247 E-score
157 | ATTGCGGA | 0.0617 E-score
158 | CAATATTG | 0.126 E-score
159 | AAGGGGGG | -0.254 E-score
160 | GTCTGTGA | -0.135 E-score
161 | CTGTGGTA | 0.066 E-score
162 | GAATTAAC | 0.0638 E-score
163 | CCCAGGCA | -0.186 E-score
164 | TAACTGCA | 0.143 E-score
165 | CCTGTAAG | -0.149 E-score
166 | CAGGTGCA | -0.101 E-score
167 | GGATGCAA | -0.124 E-score
168 | CGTGTGCA | -0.103 E-score
169 | ACGTATCG | 0.0273 E-score
170 | CCGCCACG | -0.256 E-score
171 | ATTGCTTG | 0.0118 E-score
172 | CAGAACTG | -0.0193 E-score
173 | CCATACAC | -0.00448 E-score
174 | CTTCTCTC | 0.0464 E-score
175 | CAATACGG | 0.0164 E-score

Row | Sequence | binding signal
176 | AGTGCACA | -0.00715 E-score
177 | CCACCTGG | -0.207 E-score
178 | GTGCTGGA | -0.124 E-score
179 | CTTACCGC | -0.0741 E-score
180 | CGAAGGCA | -0.11 E-score
181 | GCAATGAA | -0.0602 E-score
182 | AGAGGAAA | -0.147 E-score
183 | AATCCTCC | -0.0482 E-score
184 | ACCTTGTC | -0.0614 E-score
185 | CAGGCACG | -0.333 E-score
186 | ATCTAATG | 0.0475 E-score
187 | ACTAGAAC | 0.255 E-score
188 | CACGCGGG | -0.235 E-score
189 | GCAGCCTA | -0.111 E-score
190 | TGTAGAAA | 0.35 E-score
191 | CTGCGCAC | -0.181 E-score
192 | CACGACGA | 0.0734 E-score
193 | CAGGACCG | -0.265 E-score
194 | AAAACGCC | -0.219 E-score
195 | CGGCCGGA | -0.136 E-score
196 | GCACGCTA | 0.0309 E-score
197 | AAGGAGTA | -0.115 E-score
198 | CGCAATCA | 0.0555 E-score
199 | GTGTTTCA | 0.0533 E-score
200 | GTATTACA | 0.186 E-score

Row | Sequence | binding signal
201 | AATGGGGC | -0.139 E-score
202 | AAGAAGAC | 0.074 E-score
203 | CAAACAGG | -0.186 E-score
204 | TACAAATA | 0.359 E-score
205 | AACTCCCG | -0.0411 E-score
206 | AATCGCAA | 0.000881 E-score
207 | GCAATGCC | -0.104 E-score
208 | GACAATTA | 0.0675 E-score
209 | CGCACAAC | -0.025 E-score
210 | GCCGTCCC | -0.175 E-score
211 | ACATATAT | 0.4 E-score
212 | TAAGCCAA | -0.032 E-score
213 | CATGTACG | 0.0809 E-score
214 | AGGCGGAA | -0.0614 E-score
215 | GCCGTCGC | -0.194 E-score
216 | CTGCCCAG | -0.33 E-score
217 | CTTTCAAA | -0.207 E-score
218 | GCCCGTCA | -0.212 E-score
219 | CGACACAC | -0.0695 E-score
